# In the BET-seq Pho4 binding data (Le et al. 2018):
# This is one part of the list. These are noisy estimates, calculated here from bound and input reads.
# Molecular target: T1, Pho4 (S. cerevisiae) (UniProt P07270)
# T1 sequence: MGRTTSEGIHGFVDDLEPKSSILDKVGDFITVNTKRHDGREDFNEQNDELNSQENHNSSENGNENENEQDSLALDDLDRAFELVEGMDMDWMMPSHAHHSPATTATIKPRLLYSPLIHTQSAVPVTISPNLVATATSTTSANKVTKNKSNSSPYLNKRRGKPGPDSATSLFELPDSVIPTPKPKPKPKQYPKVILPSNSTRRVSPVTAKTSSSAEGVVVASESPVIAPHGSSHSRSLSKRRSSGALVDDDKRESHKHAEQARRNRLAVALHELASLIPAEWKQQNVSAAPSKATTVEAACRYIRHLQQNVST
# Test: relative binding free energy (BET-seq); higher = weaker binding
# Settings: reference: library average
row,Sequence,relative binding free energy
1,GTTGTCACGTGTGATG,0.24 kcal/mol
2,TAGGACACGTGAGGGA,0.25 kcal/mol
3,ACGTTCACGTGGTGTT,0.07 kcal/mol
4,TCGTTCACGTGGTCGG,0.26 kcal/mol
5,TGGTTCACGTGGTGAG,0.36 kcal/mol
6,AGTTTCACGTGAGTTC,0.37 kcal/mol
7,GTTCACACGTGTGCTG,0.17 kcal/mol
8,TGAGTCACGTGGTTGG,0.07 kcal/mol
9,TGGGACACGTGAAGTT,0.3 kcal/mol
10,GCTTCCACGTGTGGGG,0.06 kcal/mol
11,CTTGTCACGTGCTGGA,0.16 kcal/mol
12,TATGCCACGTGGAAGT,-0.03 kcal/mol
13,GCGCCCACGTGTGGGG,-0.06 kcal/mol
14,GGAGGCACGTGTTTGT,-0.13 kcal/mol
15,TTGGTCACGTGTTCCT,0.18 kcal/mol
16,AGTTGCACGTGTTCTA,0.09 kcal/mol
17,TTGTACACGTGTAGAT,0.09 kcal/mol
18,GGTTACACGTGGCGGG,0.03 kcal/mol
19,ATGTACACGTGGAGTG,-0.02 kcal/mol
20,TGTCACACGTGTTGGT,0.04 kcal/mol
21,TTTGGCACGTGGTTGG,-0.07 kcal/mol
22,AGTCACACGTGTTGCG,0.12 kcal/mol
23,GAGTGCACGTGGATGC,-0.01 kcal/mol
24,GTTTGCACGTGAGTGT,0.28 kcal/mol
25,TAGTTCACGTGTTAAA,0.27 kcal/mol
26,AGTTACACGTGTATGG,0.06 kcal/mol

row,Sequence,relative binding free energy
1,ATTAACACGTGTAGGG,-0.04 kcal/mol
2,GTGCTCACGTGTGGAG,0.27 kcal/mol
3,ATGTTCACGTGGAGTG,0.19 kcal/mol
4,GGCGGCACGTGAGGTT,0.24 kcal/mol
5,TTCGTCACGTGGGCTT,-0.1 kcal/mol
6,TGTTGCACGTGTCATT,0.06 kcal/mol
7,ATAGCCACGTGGGGGG,-0.34 kcal/mol
8,AGGAGCACGTGCGGGG,-0.21 kcal/mol
9,TAGAACACGTGTATTT,0.15 kcal/mol
10,AGTGGCACGTGGGAAT,-0.21 kcal/mol
11,TGGAACACGTGGGGCA,-0.16 kcal/mol
12,GCGTACACGTGTTTGG,0.1 kcal/mol
13,TTTATCACGTGGGCGA,-0.08 kcal/mol
14,AAGTACACGTGGTGTT,0.05 kcal/mol
15,TAGGTCACGTGTCTAT,-0.02 kcal/mol
16,GGATGCACGTGTGGAA,0.07 kcal/mol
17,AACTGCACGTGGTATT,0.05 kcal/mol
18,TCGGACACGTGTGAGA,0.23 kcal/mol
19,AATTGCACGTGGTATA,-0.09 kcal/mol
20,GGGTGCACGTGGTATG,-0.08 kcal/mol
21,ATTTGCACGTGAATAT,0.31 kcal/mol
22,TGAATCACGTGGAATT,0.2 kcal/mol
23,GTGGACACGTGTCGGG,0.11 kcal/mol
24,GGTGTCACGTGCAAGT,0.01 kcal/mol
25,ATTAGCACGTGTTTAA,-0.08 kcal/mol
26,CTTTGCACGTGTTGGC,0.12 kcal/mol

row,Sequence,relative binding free energy
1,GGGTGCACGTGGGAGA,0.02 kcal/mol
2,ACGGCCACGTGTGGTT,0.09 kcal/mol
3,ATTTTCACGTGGTGCA,0.38 kcal/mol
4,TTAGTCACGTGAGAAG,0.38 kcal/mol
5,TTATGCACGTGCGATT,-0.08 kcal/mol
6,TGAAACACGTGATGGT,0.16 kcal/mol
7,TGTATCACGTGTTATC,0.08 kcal/mol
8,TCAGTCACGTGGTTTT,0.11 kcal/mol
9,ATTGTCACGTGGCAGG,0.06 kcal/mol
10,GGTAGCACGTGCGGGC,-0.14 kcal/mol
11,AGGGTCACGTGAATTT,0.32 kcal/mol
12,TTCGTCACGTGTAATA,0.12 kcal/mol
13,TGGCCCACGTGGTGGG,-0.07 kcal/mol
14,TGATTCACGTGAGGCT,0.4 kcal/mol
15,AAATGCACGTGTTGGT,0.03 kcal/mol
16,CGCAACACGTGGGGGG,-0.14 kcal/mol
17,GGTGGCACGTGAGTGA,0.24 kcal/mol
18,CTCTACACGTGTGGTT,0.1 kcal/mol
19,ATGGGCACGTGGAGGT,-0.08 kcal/mol
20,GTGGTCACGTGTTGCA,0.13 kcal/mol
21,CATTACACGTGTTATT,0.1 kcal/mol
22,ATGTGCACGTGTTGAT,0.01 kcal/mol
23,GTTTACACGTGTCTTT,0.19 kcal/mol
24,TTGTACACGTGTGTGA,0.01 kcal/mol
25,ATCTACACGTGTTTTT,0.08 kcal/mol
26,TGGGACACGTGAAAAG,0.23 kcal/mol

row,Sequence,relative binding free energy
1,GTAGTCACGTGAGTAT,0.31 kcal/mol
2,GGTATCACGTGTGTAC,0.36 kcal/mol
3,GAGGTCACGTGTGTCA,0.26 kcal/mol
4,TTTCGCACGTGGCGGT,-0.09 kcal/mol
5,GTGATCACGTGCGGAG,-0.03 kcal/mol
6,TCGTTCACGTGGTTTT,0.28 kcal/mol
7,CTTCTCACGTGGTGTT,0.15 kcal/mol
8,CTTTTCACGTGCAGGT,0.27 kcal/mol
9,GTGTTCACGTGTCTTT,0.25 kcal/mol
10,GGTGGCACGTGTCATT,0.01 kcal/mol
11,TTTCACACGTGGGCTG,0.02 kcal/mol
12,TAGGCCACGTGATGGA,-0.01 kcal/mol
13,TTGAACACGTGAGGAT,0.35 kcal/mol
14,AAAGGCACGTGGGTGA,-0.28 kcal/mol
15,AGTTGCACGTGAAGTA,0.28 kcal/mol
16,GGTAACACGTGTTAGT,0.07 kcal/mol
17,CGGGTCACGTGGCATG,0.03 kcal/mol
18,AGGGTCACGTGATTCA,0.25 kcal/mol
19,TTTTACACGTGGAGGT,0.13 kcal/mol
20,TGCATCACGTGATGGG,0.34 kcal/mol
21,TTTATCACGTGCAATG,0.21 kcal/mol
22,GCTGGCACGTGGGCTG,-0.14 kcal/mol
23,CAGGCCACGTGGGGGA,-0.32 kcal/mol
24,GTGCACACGTGTGTTG,0.15 kcal/mol
25,TATGGCACGTGTGCGG,-0.14 kcal/mol
26,ATTTGCACGTGAAGAT,0.31 kcal/mol

row,Sequence,relative binding free energy
1,ATTGACACGTGGCGGT,-0.11 kcal/mol
2,GTCGTCACGTGTATAG,0.06 kcal/mol
3,TTAGACACGTGTGGTG,0.09 kcal/mol
4,ATTGACACGTGCAGGT,-0.1 kcal/mol
5,GGACTCACGTGGGAGT,0.12 kcal/mol
6,AGGTTCACGTGTTGTA,0.26 kcal/mol
7,GGAGACACGTGGCTGG,-0.16 kcal/mol
8,ATTTTCACGTGGCCGT,0.31 kcal/mol
9,GATAGCACGTGGTGTA,-0.21 kcal/mol
10,TCGTGCACGTGGAGGT,-0.01 kcal/mol
11,GTCGGCACGTGGGGCA,-0.04 kcal/mol
12,ATGTCCACGTGGGTTG,-0.11 kcal/mol
13,TTTATCACGTGGCTTA,0.06 kcal/mol
14,CGGAGCACGTGTCAGG,-0.09 kcal/mol
15,GGAAGCACGTGTAGAA,0.11 kcal/mol
16,GTGATCACGTGATGAG,0.1 kcal/mol
17,AAGTTCACGTGTTTTT,0.32 kcal/mol
18,TCTGTCACGTGTATCT,0.13 kcal/mol
19,TATGTCACGTGGATTA,0.16 kcal/mol
20,TAGGTCACGTGAGTCG,0.42 kcal/mol
21,ATTATCACGTGGTGCT,0.2 kcal/mol
22,AAGGGCACGTGAGTTA,0.07 kcal/mol
23,ATCAGCACGTGATGGG,-0.04 kcal/mol
24,TGGCTCACGTGTTGTG,0.19 kcal/mol
25,TATTACACGTGTTAAG,0.13 kcal/mol
26,TTATGCACGTGTATTA,-0.06 kcal/mol

row,Sequence,relative binding free energy
1,CTTTTCACGTGTTTAA,0.3 kcal/mol
2,AGTGTCACGTGGTGTG,0.05 kcal/mol
3,GTAATCACGTGGACGG,0.2 kcal/mol
4,AGTGGCACGTGCCGGG,-0.11 kcal/mol
5,TTGCGCACGTGGGGCA,-0.28 kcal/mol
6,TGGTTCACGTGGGAGG,0.25 kcal/mol
7,AGGGTCACGTGGGGAT,-0.01 kcal/mol
8,CGGAGCACGTGTCGGT,-0.01 kcal/mol
9,GAATGCACGTGTGGAA,0.2 kcal/mol
10,TATGGCACGTGTACTT,0.03 kcal/mol
11,TGTGGCACGTGTCGCG,-0.02 kcal/mol
12,GTGGGCACGTGGCGGA,-0.2 kcal/mol
13,GTCTTCACGTGTTGGG,0.36 kcal/mol
14,ACAGGCACGTGTGGGA,-0.01 kcal/mol
15,GGGGGCACGTGCGATC,0.02 kcal/mol
16,AGAGTCACGTGTTAAG,-0.07 kcal/mol
17,AGTCGCACGTGAGGTG,0.18 kcal/mol
18,AGTTTCACGTGTAGAT,0.3 kcal/mol
19,GTCATCACGTGTGGCT,0.25 kcal/mol
20,CGGAGCACGTGTGTGT,-0.13 kcal/mol
21,GTCGTCACGTGCTGTA,0.1 kcal/mol
22,GTTGACACGTGCGGTG,-0.09 kcal/mol
23,TAGTTCACGTGAAGTC,0.5 kcal/mol
24,GTGGTCACGTGGTAAT,0.24 kcal/mol
25,TTGTTCACGTGATTGC,0.3 kcal/mol
26,GCATGCACGTGGTGAG,-0.06 kcal/mol

row,Sequence,relative binding free energy
1,GAGTTCACGTGGTAGA,0.3 kcal/mol
2,TGCGGCACGTGAGGTA,0.1 kcal/mol
3,ATAGGCACGTGGGCGT,-0.26 kcal/mol
4,AAATACACGTGGTAGT,-0.02 kcal/mol
5,AGTTGCACGTGTACTG,-0.01 kcal/mol
6,GTGGGCACGTGCGGGC,-0.15 kcal/mol
7,TTTATCACGTGAGCAT,0.31 kcal/mol
8,TTTGGCACGTGGCAGC,-0.27 kcal/mol
9,GTGGGCACGTGGCATA,-0.33 kcal/mol
10,TTCGTCACGTGTTGTA,0.15 kcal/mol
11,AATGTCACGTGTTAGT,0.14 kcal/mol
12,CTCGGCACGTGGTGGG,-0.07 kcal/mol
13,AGAGTCACGTGTAGGA,0.15 kcal/mol
14,GGTAACACGTGAATGG,0.14 kcal/mol
15,GGTTTCACGTGGCTAG,0.27 kcal/mol
16,AATTGCACGTGAATAT,0.23 kcal/mol
17,ATGGTCACGTGTTGCA,0.06 kcal/mol
18,GATAACACGTGAAGGG,0.41 kcal/mol
19,CTTAGCACGTGGTGGG,-0.19 kcal/mol
20,GGTGCCACGTGGGTTT,-0.19 kcal/mol
21,ATGGCCACGTGAGTTT,0.14 kcal/mol
22,AGGCTCACGTGATGTG,0.28 kcal/mol
23,AGGCGCACGTGGCGGA,-0.22 kcal/mol
24,CGTAACACGTGTGTTG,-0.12 kcal/mol
25,CGGCTCACGTGGAAGG,0.27 kcal/mol
26,TAGAGCACGTGTGAGG,0 kcal/mol

row,Sequence,relative binding free energy
1,GACGGCACGTGGAGGG,0.04 kcal/mol
2,AACGGCACGTGGTGTA,-0.18 kcal/mol
3,TGGCTCACGTGTATCG,0.19 kcal/mol
4,ACATTCACGTGGTTGG,0.24 kcal/mol
5,ACGTTCACGTGTATGG,0.1 kcal/mol
6,GGTAGCACGTGGAGTT,0 kcal/mol
7,GGCAGCACGTGTGCTT,0.12 kcal/mol
8,GTGAGCACGTGTTAGT,-0.07 kcal/mol
9,AGTAACACGTGTATTG,0.06 kcal/mol
10,TTGTGCACGTGCGGTA,-0.14 kcal/mol
11,GGCGGCACGTGTATGT,0.04 kcal/mol
12,TTGATCACGTGCGTGC,0.17 kcal/mol
13,TCTGTCACGTGTTGCG,0.21 kcal/mol
14,GGTTTCACGTGGGCCG,0.26 kcal/mol
15,TGGAACACGTGGTCGA,-0.03 kcal/mol
16,AGTGTCACGTGACAGA,0.28 kcal/mol
17,AGATACACGTGTTAGT,0.08 kcal/mol
18,AAGTGCACGTGTAGGG,0.07 kcal/mol
19,CTGGGCACGTGTAGTG,-0.05 kcal/mol
20,TGTGCCACGTGTTTTT,-0.02 kcal/mol
21,AAAGACACGTGTTGTG,-0.11 kcal/mol
22,GGATTCACGTGCTTGT,0.25 kcal/mol
23,CAGGTCACGTGAGTTT,0.22 kcal/mol
24,TGAAACACGTGTGAGG,0.05 kcal/mol
25,AAGGTCACGTGGGGCC,-0.05 kcal/mol
26,TTCTGCACGTGTGAAG,0.17 kcal/mol

row,Sequence,relative binding free energy
1,TTCAGCACGTGGGATA,-0.23 kcal/mol
2,AATTGCACGTGTTTGT,0.08 kcal/mol
3,GGTGACACGTGTCGGG,0.06 kcal/mol
4,AAGGGCACGTGGAGTT,-0.03 kcal/mol
5,GGTCACACGTGTGGCT,0.09 kcal/mol
6,TTTGACACGTGTGGCG,0.04 kcal/mol
7,TTAAACACGTGATAGG,0.16 kcal/mol
8,CTTGGCACGTGGGCGG,-0.23 kcal/mol
9,ACTGGCACGTGATGTG,-0.05 kcal/mol
10,GTCAGCACGTGTGGGT,0.03 kcal/mol
11,GGGTACACGTGAGTTT,0.26 kcal/mol
12,TTCATCACGTGTGGAT,0.18 kcal/mol
13,AGGCTCACGTGTGTAT,0.19 kcal/mol
14,AGGCACACGTGGGGGC,-0.22 kcal/mol
15,AGGTTCACGTGATTTA,0.32 kcal/mol
16,TTGGCCACGTGCGTTA,-0.04 kcal/mol
17,TCAGTCACGTGTCTGT,0.07 kcal/mol
18,AGTAGCACGTGGCCGG,-0.2 kcal/mol
19,TTGGGCACGTGCTGGT,-0.17 kcal/mol
20,ATTATCACGTGCGTGG,0.06 kcal/mol
21,GGGGGCACGTGCCAGG,-0.26 kcal/mol
22,ACTTGCACGTGTAAGG,0.12 kcal/mol
